Test results reported in the supplement of paper PMC4166925.
± gives the standard deviation of the averaged measurements. Over roughly 33,000 sequences, “E-score (dimensionless, -0.5 to 0.5)” has its median near -0.049; the highest 2% begin near 0.37. Some of the results follow.

What follows are sequences tested on T1, PmTbr T-box DNA-binding domain (GST fusion) (assay: PBM E-score of 8-mer (E-score (dimensionless, -0.5 to 0.5)); Tbr is Tbrain of the sea star Patiria miniata (Pm) or the sea urchin Strongylocentrotus purpuratus (Sp); higher = stronger binding preference; most listed sequences are background and not binding sites). Details: the construct has about 5 more residues each side.
T1 sequence: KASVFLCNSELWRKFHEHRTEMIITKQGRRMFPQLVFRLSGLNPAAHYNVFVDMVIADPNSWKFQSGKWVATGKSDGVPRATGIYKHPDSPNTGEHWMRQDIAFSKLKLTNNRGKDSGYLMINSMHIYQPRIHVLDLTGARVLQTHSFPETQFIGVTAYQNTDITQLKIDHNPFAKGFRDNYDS
Protocol: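 Universal protein-binding microarray (Agilent AMADID 016060, 60-bp probes with a 35-bp variable region) incubated with 200 nM GST-fused Patiria miniata Tbr T-box DNA-binding domain (residues 272-466) in PBS pH 7.5. Scored for every ungapped 8-mer (given with its reverse complement) by the Universal PBM Analysis Suite as E-score (modified Wilcoxon-Mann-Whitney enrichment, range -0.5 to 0.5; >0.45 counts as bound) and Z-score of median probe intensity. Two replicate arrays (datasets 1 and 2).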

Sequence | PBM E-score of 8-mer
CAGACTCC | -0.211 ± 0.064
ACAAGTAA | -0.0192 ± 0.036
CGCCAGAC | 0.0964 ± 0.0054
GAATACCC | -0.145 ± 0.004
CTGCGCTA | -0.0165 ± 0.0019
GCCGGAGA | -0.0819 ± 0.037
CCATGACG | -0.187 ± 0.065
AGACGAGC | -0.164 ± 0.074
GCCTCCAA | -0.0538 ± 0.053
TGAAATAA | 0.131 ± 0.11
CTAAAATC | 0.073 ± 0.065
GCTTTTAA | -0.134 ± 0.11
CCGCATCG | -0.0426 ± 0.024
TACGAGAA | -0.145 ± 0.1
TCGCGAAA | 0.409 ± 0.025
GTGGTACA | -0.0592 ± 0.028
AACAGGAG | -0.00971 ± 0.013
CGCGTGAC | 0.342 ± 0.0057
CGACATCC | 0.0836 ± 0.0083
AGATTTCC | -0.061 ± 0.062
AAGGCAAA | -0.179 ± 0.039
ACGTTCTA | -0.0564 ± 0.067
ACCGCTTG | -0.00853 ± 0.018
CAACGGGA | -0.126 ± 0.042
AGTAGAAT | -0.161 ± 0.023

Sequence | PBM E-score of 8-mer
CTGGTCTA | -0.138 ± 0.044
GCCGACTA | -0.000295 ± 0.0049
CACTGGCC | -0.114 ± 0.058
CTCCGCAA | -0.0946 ± 0.021
AGAAGATA | -0.136 ± 0.0022
CGTTTATA | -0.286 ± 0.029
CCATTAAA | -0.239 ± 0.0035
CTTCCGGC | 0.0279 ± 0.046
CCTCGAGG | 0.0461 ± 0.12
CGATACTA | -0.0985 ± 0.048
CACTATCG | 0.177 ± 0.031
TGATGGCA | 0.0656 ± 0.037
AGCTTCGG | -0.159 ± 0.077
ATGATTGC | -0.199 ± 0.02
AGGGGTGC | 0.201 ± 0.011
CATCTGAG | -0.0604 ± 0.046
GATAAGCA | -0.00515 ± 0.047
ACGCAGCA | -0.065 ± 0.017
AGGCACAC | 0.245 ± 0.049
ACGTGACC | 0.157 ± 0.02
GTGAGAGA | 0.319 ± 0.015
CAAAGACC | -0.23 ± 0.05
CACCCATA | 0.227 ± 0.0097
GATGGACA | -0.206 ± 0.033
GAATCGGC | -0.0727 ± 0.071

Sequence | PBM E-score of 8-mer
CCAGGTTA | -0.154 ± 0.091
GTTCAAAA | -0.0917 ± 0.091
ACACCTCA | 0.47047 ± 0.00026
ACCGGCTC | -0.121 ± 0.0038
ACCCTGAG | 0.11 ± 0.021
ATAACTAG | 0.0348 ± 0.041
GACGCACA | 0.0749 ± 0.018
CTATGATC | -0.133 ± 0.0091
TCCGAAAA | -0.00383 ± 0.062
ACTCTCGG | -0.105 ± 0.025
GGATATGA | -0.0273 ± 0.071
CGGAAGAG | 0.0337 ± 0.088
ACCTACGG | -0.00262 ± 0.025
ACAAACTC | 0.153 ± 0.037
AAAAATAC | -0.0485 ± 0.085
CTCTCGAA | 0.135 ± 0.056
GTGAACTA | 0.188 ± 0.012
TGCCGCCA | 0.0857 ± 0.11
GAAGGAAC | -0.147 ± 0.01
AAGTCGGA | -0.3 ± 0.0088
AATCAGAT | -0.0246 ± 0.083
CGTATACG | -0.151 ± 0.11
AACTAGAC | -0.259 ± 0.088
AGCTCGAG | -0.0268 ± 0.023
GAGCGCAC | -0.0637 ± 0.099

Sequence | PBM E-score of 8-mer
GTCATATA | 0.0467 ± 0.0023
GAATTTCC | -0.0723 ± 0.029
ATCAGGCC | -0.343 ± 0.031
CAGAGGCG | 0.219 ± 0.05
TAGTTACA | -0.0997 ± 0.035
AAGTGAAT | -0.019 ± 0.075
CAGTCTTC | -0.134 ± 0.082
CACCCGGC | 0.19 ± 0.0082
GTCCGGAC | -0.133 ± 0.021
CTCGCCAG | 0.11 ± 0.0016
AGAATGAC | -0.0207 ± 0.017
GTTCCAAC | -0.0165 ± 0.035
ACTCGCTG | 0.156 ± 0.024
ACCTCAGG | 0.0765 ± 0.031
ACCAATCG | 0.134 ± 0.0052
CACTCGAA | 0.199 ± 0.035
AGGGAGGG | -0.269 ± 0.053
GGCTATCA | -0.0533 ± 0.075
CTCTACCA | -0.0803 ± 0.032
AGTAGTGA | 0.12 ± 0.00018
AGAGGGAT | -0.24 ± 0.052
GCGGACAA | -0.2 ± 0.023
AAGAGTTG | 0.0135 ± 0.019
AGTATGCA | -0.0701 ± 0.037
CCAATAAA | -0.152 ± 0.032

Sequence | PBM E-score of 8-mer
GACCTGTA | -0.16 ± 0.025
AGTCCGGA | -0.133 ± 0.019
AGTAGCGA | 0.206 ± 0.01
GGAAGCTA | -0.17 ± 0.046
CTGGTTGA | -0.00131 ± 0.03
ACGGCATG | -0.1 ± 0.0089
CACCACGA | 0.00554 ± 0.041
AGACACAG | -0.0132 ± 0.095
CAGTATGA | -0.207 ± 0.006
CGGTATGC | -0.0503 ± 0.063
AAAATAAT | -0.161 ± 0.072
CTCGATAA | 0.0911 ± 0.064
AAAAGAAC | -0.139 ± 0.12
AGACACAT | 0.184 ± 0.0023
CCCCGTCG | -0.107 ± 0.018
ACATTTGG | 0.126 ± 0.011
GTAGCTGA | -0.0719 ± 0.034
GCACAGAC | -0.0257 ± 0.13
CGAAGGTA | 0.0601 ± 0.022
ATAAAGGA | -0.2214 ± 0.0019
ACGCAGAC | -0.187 ± 0.099
ATGGGTGG | -0.00349 ± 0.064
ACCGTTCA | 0.0738 ± 0.014
ATGTGACG | 0.31 ± 0.02
GTGCAAGA | 0.108 ± 0.032

Sequence | PBM E-score of 8-mer
ATTATTCC | -0.2662 ± 0.00095
ACTCACAT | -0.0309 ± 0.043
GCCCGCCC | -0.21 ± 0.071
CACAGTAA | 0.0121 ± 0.1
GTTAACCA | 0.0306 ± 0.001
GAAAGTGC | 0.154 ± 0.035
GCTGAGCA | -0.0778 ± 0.016
CTTTAAGA | -0.256 ± 0.067
GAGCGACA | 0.2353 ± 0.0016
CCAGACCC | -0.0808 ± 0.0004
ACCAGATG | -0.261 ± 0.042
CAGATTCG | 0.0952 ± 0.046
CGGGCCCC | -0.291 ± 0.021
GGTGACAC | 0.4691 ± 0.0035
AGGCGCCA | 0.363 ± 0.0098
CCGAGGGA | -0.236 ± 0.0027
GGGACTCA | -0.363 ± 0.0047
TCGCACGA | 0.324 ± 0.0049
CCTGCTCC | -0.126 ± 0.033
AATCATGA | -0.073 ± 0.025
TCAAGACA | 0.0831 ± 0.0023
AGTTTGGC | 0.11 ± 0.018
AATAAAAG | 0.0212 ± 0.11
CCAAGTCA | 0.0507 ± 0.024
AAAAACTT | -0.093 ± 0.017

Sequence | PBM E-score of 8-mer
CAAACAGG | -0.107 ± 0.034
CAGCGGGC | -0.225 ± 0.021
CAGCTCCA | -0.0434 ± 0.045
AATACAAG | -0.0932 ± 0.0024
CCGCCCCC | -0.19 ± 0.05
CTCGAAAC | -0.0654 ± 0.027
AAGCAAAA | -0.0708 ± 0.028
CACACGGG | 0.16 ± 0.032
GCTTCATA | -0.109 ± 0.011
CTGTGGGA | 0.124 ± 0.032
CAAATACA | -0.164 ± 0.0057
GCGATAGC | 0.218 ± 0.035
TAGAGAAA | -0.2 ± 0.054
CTAATTTC | -0.0627 ± 0.075
ATCGATCC | 0.0015 ± 0.0016
CATGCGCG | 0.149 ± 0.081
ATGCTTGG | -0.135 ± 0.1
CTACGAGA | -0.127 ± 0.026
AGAAGAGA | -0.124 ± 0.08
ATTTTTCA | 0.0346 ± 0.093
AAGAAGTC | 0.0125 ± 0.0032
CCTCCCCG | -0.0393 ± 0.061
